US11254689B2, “Compounds” (priority 2017, dated 2022)

The molecules below were run on Mycobacterium tuberculosis H37Rv in human macrophages THP-1 (assay: Mycobacterium tuberculosis in vitro H37Rv in human macrophages THP-1 inhibition assay (intracellular assay)). Conditions: THP-1, intracellular H37Rv in THP-1 macrophages, without the presence of ethionamide.

| Compound | pIC50 |
| --- | --- |
| O=C(CCC(F)(F)F)N1CCC2(CC1)CC(OCC(F)(F)F)=NO2 [Example 1, 4,4,4-trifluoro-1-[3-(2,2,2-trifluoroethoxy)-1-oxa-2,8-diazaspiro[4.5]dec-2-en-8-yl]butan-1-one] | > 6.30 |
| CCCOC1=NOC2(CCN(C(=O)CCC(F)(F)F)CC2)C1 [Example 2, 4,4,4-trifluoro-1-(3-propoxy-1-oxa-2,8-diazaspiro[4.5]dec-2-en-8-yl)butan-1-one] | > 6.30 |
| CCCCCCOC1=NOC2(CCN(C(=O)CCC(F)(F)F)CC2)C1 [Example 4, 4,4,4-trifluoro-1-(3-hexyloxy-1-oxa-2,8-diazaspiro[4.5]dec-2-en-8-yl)butan-1-one] | > 6.30 |
| CC1=NOC2(CCN(C(=O)CCC(F)(F)F)CC2)C1 [Example 9, 4,4,4-trifluoro-1-(3-methyl-1-oxa-2,8-diazaspiro[4.5]dec-2-en-8-yl)butan-1-one] | > 6.30 |

pIC50: −log10 of the molar value.
